In all, about 43,000 compounds went through this assay and about 200 (0.47%) were called active. About 12% were inconclusive and are not listed. Calls come from the whole dose curve; as a rule, active = well fitted cell-killing curve with a large enough effect; inconclusive = small, poorly fitted or top-dose-only effect, or effect the other way; inactive = flat fitted curve, though single readings scatter. Some of the results follow.
experiment: Cell viability qHTS assay in S16 Pmp22-F2sN cells; conditions: S16 Pmp22-F2sN Schwann cells viability, CellTiter-Glo, 24 h; series mostly up to 57.5 µM; activity change, negative = cytotoxicity: at the top concentration; note: nearly all actives have a fitted effect of over 65% in size
In short: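 Used to flag compounds lowering reporter output through toxicity, this quantitative HTS measures ATP-based CellTiter-Glo luminescence in S16 Pmp22-F2sN Schwann cells after 24 h compound exposure at 37C.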
% is set by controls: 0 for no effect and ±100 for the full control effect.

SMILES | activity change, negative = cytotoxicity
O=C(C1CCN(S(=O)(=O)c2cccc3nonc23)CC1)N1CCN(c2cccc(Cl)c2)CC1 | inactive: -22.2%
Cc1ccc(Cn2c(=O)c3ccccc3n3c(-c4cccc(O)c4)nnc23)cc1 | inactive: -12.9%
CCN(CC)CCOC(=O)c1ccc(NC(=O)Cn2ncc3c2-c2cc(C)ccc2OC3)cc1 | inactive: 0.193%
Cc1nn(-c2ccc(F)cc2)c(-n2cccc2)c1C(=O)NCCc1ccc(Cl)cc1 | inactive: -11%
Cc1cc(C)n2nc(CNS(=O)(=O)c3ccc(C)c(C)c3)nc2n1 | inactive: -0.724%
CC(C)OCCCn1c(SCC(=O)c2ccccc2)nc2c(sc3ccccc32)c1=O | inactive: 4.43%
Cc1ccc(CN(Cc2ccco2)C(=O)c2ccc(OCC(C)C)cc2)cc1 | inactive: -11.3%
COc1ccc(NC(=O)c2c(NC(=O)COc3ccccc3)sc3c2CCC(C(C)(C)C)C3)cc1 (stereo unspecified) | inactive: -4.6%
CCCCN1CCc2nc(Nc3ccc(OC)cc3OC)ncc2C1 | inactive: 6.23%
Cc1nc2sccn2c(=O)c1S(=O)(=O)Nc1cc(Cl)ccc1O | inactive: -4.38%
CCOC(=O)c1cc(-c2ccc(F)cc2)n(CC(=O)NC2CCCCCC2)c1C | inactive: -20.3%
CCOc1cccc2c1N[C@@H](c1ccc(C(=O)O)cc1)[C@H]1CC=C[C@@H]21 | inactive: -2.8%
Cc1ccc(-n2nc(C)c3c(C)c(CCC(=O)NCc4ccccc4Cl)c(C)nc32)cc1C | inactive: 9.27%
COc1ccc(-c2cc(-c3ccccc3)nc3c2COc2ccc(F)cc2-3)cc1 | inactive: 24.4%
CCN(CC)C(=O)Cn1c(=O)cc(C)c2c(C)nn(-c3ccc(C)cc3)c21 | inactive: 1.64%
Cc1ccc(S(=O)(=O)N2CCCc3cc(NS(=O)(=O)c4cc(C)ccc4C)ccc32)cc1 | inactive: -8.99%
Cc1ccc(CSc2ncc(Cl)c(C(=O)NCc3ccccc3)n2)cc1 | inactive: 9.78%
CC(C)c1nn2c(=O)cc(COC(=O)c3ccc(NC(=O)C4CCCCC4)cc3)nc2s1 | inactive: -3.08%
Cc1ccc(C(=O)c2oc3ccccc3c2NC(=O)COc2ccc(C(C)C)cc2)cc1 | inactive: 8.72%
O=C(Nc1ccc(S(=O)(=O)Nc2ncccn2)cc1)c1cc(=O)c2ccccc2o1 | inactive: 4.02%
COc1ccc(-c2cn3cccnc3n2)cc1NC(=O)Nc1ccc(Cl)cc1 | inactive: -5.62%

SMILES | activity change, negative = cytotoxicity
CCOc1ccc(NC(=O)c2ccc3c(c2)CCN3S(=O)(=O)CC)cc1 | inactive: 26.6%
Cc1ccc(-c2nc(NC(=O)CSc3nc(C)nc4sc5c(c34)CCCC5)ns2)cc1 | inactive: 16.4%
CCOC(=O)c1cccc(NC(=O)C2Cc3ccccc3N2C(=O)c2ccccc2)c1 (stereo unspecified) | inactive: 2.82%
CCOc1ccc(C(=O)NC2CC(=O)N(c3ccc(C)cc3)C2)cc1OCC (stereo unspecified) | inactive: 3.96%
Cc1cccc(-n2ncc3c(Nc4ccc(C)c(Cl)c4)ncnc32)c1 | inactive: 21.5%
COc1ccc(NC(=O)c2c(-c3ccccc3)c(-c3ccccc3)nn(C)c2=O)cc1OC | inactive: -4.02%
Cc1ccc(C)c(Cn2c(=O)n(C(C)C)c(=O)c3oc4ccccc4c32)c1 | inactive: 16.5%
Cc1ccccc1CNC(=O)CN1C(=O)C2CCCCN2c2ccc(C(=O)N3CCCC3)cc21 (stereo unspecified) | inactive: 4.4%
CCc1nn(CC(=O)N2CCCCC2)c(=O)c2cc3sc(C)cc3n12 | inactive: 10.1%
Cc1ccccc1NC(=O)CCS(=O)(=O)c1cc(Br)cc2c1N(C(=O)C1CC1)CC2 | inactive: 0.166%
c1ccc(CN2CCN(c3ncnc4c3cnn4-c3ccccc3)CC2)cc1 | inactive: 0.13%
CCc1cccc(NC(=O)C2CCC(CNS(=O)(=O)c3ccc(Br)s3)CC2)c1 (stereo unspecified) | inactive: 3.23%
Cc1ccccc1OCC(=O)Nc1cccc(C(=O)OCc2cc(=O)n3c(C)csc3n2)c1 | inactive: 3.13%
Cc1ccc(S(=O)(=O)Cc2ccc(C(=O)N3CCN(c4cccc(Cl)c4)CC3)o2)cc1 | inactive: -16.9%
O=C(Cn1c(=O)n(-c2ccc(Cl)cc2)c(=O)c2sc3ccccc3c21)NC1CCCC1 | inactive: 11.7%
CCOc1ccc(-c2c(C)nn3c(C)c(C(=O)NCCc4ccc(Cl)cc4)cnc23)cc1OCC | inactive: -0.354%
COC(=O)c1ccccc1NC(=O)c1cc2cc(C)ccc2n1C | inactive: -16.3%
Cc1ccccc1Cn1c2ccccc2c2cnn(CC(=O)NCc3ccccn3)c(=O)c21 | inactive: 16%
Cc1ccc(C)c(N2CCN(C(=O)NCc3noc4ccc(C)cc34)CC2)c1 | inactive: -2.03%
O=C(NCCc1ccccc1)C1CCC(CNS(=O)(=O)c2ccc(Cl)cc2)CC1 (stereo unspecified) | inactive: 18.7%
CCc1ccc(-n2nc(CO)c(C(=O)NCCCc3ccccc3)n2)cc1 | inactive: 3.73%

SMILES | activity change, negative = cytotoxicity
Cc1ccc(C)c(S(=O)(=O)c2nnn3c2nc(NC2CCCCC2)c2sccc23)c1 | inactive: -19.2%
Cc1ccccc1NC(=O)C(=O)NCC(c1ccc2c(c1)OCO2)N1CCN(c2ccccc2)CC1 (stereo unspecified) | inactive: 22%
CCOc1ccc(C2C(C(=O)Nc3ccccc3)=C(C)Nc3nc(-c4ccccc4Cl)nn32)cc1OC (stereo unspecified) | inactive: -6.35%
COc1ccc(CNC(=O)Cn2c(=O)oc3cc(S(=O)(=O)NCc4ccccc4)ccc32)cc1 | inactive: -10.4%
CCCN(C(=O)c1cc(S(=O)(=O)N2CCc3ccccc32)cn1C)c1ccc(OCC)cc1 | inactive: -17.6%
Cc1ccc(Cl)cc1N1CCN(c2ncnc3c2nc2n3CCCC2)CC1 | inactive: -0.931%
CCC(C)NC(=O)c1cc(Sc2cccc(Cl)c2)nc2ccccc12 (stereo unspecified) | inactive: 0.822%
CCCn1c2ccccc2c2cnn(CC(=O)NCCCN3CCCCC3CC)c(=O)c21 (stereo unspecified) | inactive: 1.31%
CCOc1ccc(Nc2cc(C)nc3nncn23)cc1 | inactive: 8.86%
Cc1ccccc1NC(=O)Cn1cc(S(=O)(=O)c2ccccc2)c(=O)c2ccccc21 | inactive: 10.7%
COc1ccc(NC(=O)c2cc3c(-c4ccccc4F)nn(C)c3s2)c(OC)c1 | inactive: -2.06%
CCOc1ccc(NC(=O)c2c(C)oc3nc(C)nc(N4CCCC4)c23)cc1 | inactive: -3.72%
COc1ccc(CCNC(=O)CCc2cn(Cc3ccccc3Cl)c3ccccc23)c(OC)c1 | inactive: -2.08%
Cc1ccc(NC(=O)Cn2c(=O)n(-c3ccc(C)cc3)c(=O)c3c2cnn3C)cc1 | inactive: 18.6%
Cc1ccc(Cc2nc3ccccc3nc2SCC(=O)N2CCC(C)CC2)cc1 | inactive: 2.21%
Cc1ccc(-n2nc(C)c3c(C)c(CCC(=O)NC(C)c4ccccc4)c(C)nc32)cc1 (stereo unspecified) | inactive: 0.854%
Fc1ccc(CN2CCc3nc(N4CCN(c5ccccc5F)CC4)ncc3C2)c(F)c1 | inactive: 5.79%
CCOc1ccc(-c2cc(NC(=O)c3ccccc3)c(C(=O)OC)s2)cc1 | inactive: 4.96%
COc1ccccc1CCNC(=O)c1cccn1-c1nnc(N2CCCC2)s1 | inactive: -1.09%

— PubChem BioAssay AID1508642 (National Center for Advancing Translational Sciences (NCATS), 2021)
